Assay results published in PMC4336329 (PLoS ONE, 2015).
Among all 310,000 compounds or so, about 14,000 (4.5%) showed an effect of 50% or more. Effects have a minus sign here. This is one part of the list.

target: human ether-à-go-go-related gene (hERG) potassium channel (human, UniProt Q12809); experiment: primary screen, population patch clamp on CHO cells stably expressing hERG
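Also: peak tail current of the secondary pulse compared with the same well before compound.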

Sequence of human ether-à-go-go-related gene (hERG) potassium channel (Q12809 whole entry, looked up): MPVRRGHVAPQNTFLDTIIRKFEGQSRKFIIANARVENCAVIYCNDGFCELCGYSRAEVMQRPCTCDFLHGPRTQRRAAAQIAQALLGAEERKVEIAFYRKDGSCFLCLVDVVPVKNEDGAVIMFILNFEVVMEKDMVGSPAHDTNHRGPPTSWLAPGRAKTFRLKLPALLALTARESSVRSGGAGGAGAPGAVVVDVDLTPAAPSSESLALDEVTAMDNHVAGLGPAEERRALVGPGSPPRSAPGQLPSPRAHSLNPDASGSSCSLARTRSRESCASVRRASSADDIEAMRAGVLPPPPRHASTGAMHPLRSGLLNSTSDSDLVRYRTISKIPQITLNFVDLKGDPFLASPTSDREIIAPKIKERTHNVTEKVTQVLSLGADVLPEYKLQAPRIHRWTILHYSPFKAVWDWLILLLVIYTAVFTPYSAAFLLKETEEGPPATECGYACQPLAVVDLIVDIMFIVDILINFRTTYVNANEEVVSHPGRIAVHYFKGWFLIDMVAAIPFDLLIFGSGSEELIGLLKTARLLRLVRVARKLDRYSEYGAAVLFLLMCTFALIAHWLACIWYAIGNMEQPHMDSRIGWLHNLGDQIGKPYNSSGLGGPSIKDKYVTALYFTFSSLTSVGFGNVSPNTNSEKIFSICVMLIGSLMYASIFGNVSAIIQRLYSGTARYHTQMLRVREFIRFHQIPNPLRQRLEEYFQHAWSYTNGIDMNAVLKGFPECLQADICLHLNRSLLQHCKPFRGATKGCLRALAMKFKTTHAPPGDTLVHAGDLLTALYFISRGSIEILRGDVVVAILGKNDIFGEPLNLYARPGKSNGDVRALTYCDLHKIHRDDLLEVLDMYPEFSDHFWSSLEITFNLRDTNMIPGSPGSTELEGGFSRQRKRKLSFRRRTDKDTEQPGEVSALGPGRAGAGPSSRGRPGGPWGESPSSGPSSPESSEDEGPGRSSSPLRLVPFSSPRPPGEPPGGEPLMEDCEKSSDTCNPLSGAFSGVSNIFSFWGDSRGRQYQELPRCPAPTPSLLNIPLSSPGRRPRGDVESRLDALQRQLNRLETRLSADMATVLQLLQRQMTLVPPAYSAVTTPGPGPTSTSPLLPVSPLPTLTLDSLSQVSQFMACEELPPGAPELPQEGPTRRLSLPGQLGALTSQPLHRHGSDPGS

Row | SMILES | hERG current change (%, negative = inhibition) at 10uM
1 | O=C(/C=C/c1ccc2c(c1)OCO2)NCCSCc1ccc(Cl)cc1 | 17.5%
2 | COc1ccc(C2=NN(CN3C(=O)C(=O)c4ccccc43)C(c3ccc(Br)cc3)C2)cc1 (stereo not shown) | 11.2%
3 | COCCCNC(=O)c1ccc(Cn2c(=O)c3ccccc3n(CC(=O)NCc3ccco3)c2=O)cc1 | 6.71%
4 | C#CCOCCOCCOCCNc1nc(N2CCN(C(=O)CCCCCCCCCCNC(=O)[C@H](CO)n3cc(CCCSC)nn3)CC2)nc(N2CCN(C(=O)CCCCCCCCCCNC(=O)[C@H](CCCN=C(N)N)n3cc(C[C@@H](C)CC)nn3)CC2)n1 | 25.7%
5 | FC(F)(F)c1cccc(NCc2n[nH]c(=S)n2C2CCCCC2)c1 | 41.2%
6 | O=C(CCn1nnc2ccccc21)Nc1nnc(Cc2ccccc2)s1 | 5.59%
7 | Nc1ccc(S(=O)(=O)Nc2cnc3ccccc3n2)cc1 | 8.38%
8 | CC(OC(=O)c1oc2ccccc2c1COc1ccccc1)C(=O)NC(N)=O (stereo not shown) | 14.4%
9 | CN1CC(c2ccccn2)C2(SC(=S)N(Cc3ccccc3)C2=O)C12C(=O)Nc1ccccc12 (stereo not shown) | -13.5%
10 | Cc1nn2c(-c3ccccn3)ccnc2c1Cl | 19.5%
11 | Cc1cnc(CN(C)Cc2c(C(=O)N3CCCCCCC3)nc3ccc(Cl)cn23)[nH]1 | -29%
12 | Cc1ccc(S(=O)(=O)c2c(COC(=O)c3cccc(Cl)c3)c(-c3ccccc3)nn2C)cc1 | -14.7%
13 | CCCc1ccc2c(N)c(C#N)sc2n1 | -8.91%
14 | CC(C)[C@H](NC(=O)N1CCn2c1nc1ccccc12)C(=O)NCC1CCCO1 (stereo partly shown) | 15.2%
15 | Cc1ccc(CNC(=O)COC(=O)CCC(=O)c2cccs2)cc1 | 5.14%
16 | CCC(=O)N1CCN(c2ccc(NC(=O)c3ccc4ccccc4c3)cc2)CC1 | 22.6%
17 | COc1cc(Nc2nc3ccccc3n3nnnc23)cc(OC)c1OC | 12.5%
18 | CN(C)Cc1ccccc1Sc1ccc2c(c1)CCCC2.O=C(O)C(=O)O | -4.87%
19 | Cc1ccccc1N(C(=O)Cn1nnc(-c2ccc(F)cc2)n1)C(C(=O)NC(C)(C)C)c1ccncc1 (stereo not shown) | -12.6%
20 | Cc1cccc(N=Cc2c(O)n(C)c(=O)n(C)c2=O)c1 | 8.18%
21 | O=C(COC(=O)Cn1[nH]c(=O)c2ccccc2c1=O)NNC(=O)c1ccccc1 | 7.14%
22 | O=C(N/N=C/c1c(O)ccc2ccccc12)c1ccc(CO)nc1 | 7.09%

Row | SMILES | hERG current change (%, negative = inhibition) at 10uM
23 | COc1ccc(C(=O)CSc2cc(C)nc3nc(C)nn23)cc1OC | 11.6%
24 | CCOC(=O)c1sc2nc3c(cc2c1N)COC(C(C)C)C3 (stereo not shown) | -3.48%
25 | CC(C)Cc1cc(CN2CCC(CO)(Cc3cccc(C(F)(F)F)c3)CC2)[nH]n1 | -78%
26 | Cc1c(NC(=O)CSCc2ccco2)c(=O)n(-c2ccccc2)n1C | 4.61%
27 | Cc1ccnc(NC(=O)C2CCC(CNc3c(N4CCCC4)c(=O)c3=O)CC2)c1 (stereo not shown) | -5.02%
28 | COc1ccc(NC(=O)c2ccc(COCC(F)(F)C(F)F)cc2)cc1OC | 7.39%
29 | Cc1cccc(NC(=O)NNC(=O)c2ccc3ccccc3c2)c1 | 15.8%
30 | COc1ccccc1N1CCN(Cc2nc3ccsc3c(=O)[nH]2)CC1 | 8.76%
31 | O=C(CC1SC(N2CCCC2)=NC1=O)Nc1ccc(C(=O)Nc2ccccc2)cc1 (stereo not shown) | 9.03%
32 | COc1cccc(C(=O)NNC(=O)c2ccc3ccccc3c2O)c1 | 7.66%
33 | Cc1ccc(/C=N/N(C)S(=O)(=O)c2ccc(C)cc2)cc1 | -14.7%
34 | CC(=O)c1ccc(N2CCN(C(=S)Nc3cc(C)ccc3C)CC2)cc1 | -7.26%
35 | COC(=O)Nc1ccc(S(=O)(=O)N(C)C)cc1 | -4.33%
36 | COc1ccccc1C(=O)N1CCN(Cc2nc3cc([N+](=O)[O-])ccc3n2C)CC1 | -67.6%
37 | Cc1cc(=O)n2[nH]c(NCc3c(F)cccc3Cl)nc2n1 | 20.1%
38 | Cc1ccc(C)c(NCc2ccccc2CO)c1 | -11.4%
39 | COC(=O)C1=C(c2cc3ccccc3s2)C[C@@H]2CC[C@H]1N2C(=O)N1CCCCC1 | -5.45%
40 | CC(=O)N1CCN(c2ccccc2NC(=O)COc2cc(C)cc(C)c2)CC1 | -52.4%
41 | COCCn1cnnc1SCC(=O)Nc1cccc(S(=O)(=O)N2CCCCCC2)c1 | -60.3%
42 | CCc1ccccc1OCC(=O)Nc1nc(-c2cccnc2)cs1 | 3.46%
43 | CC(Oc1ccccc1)C(=O)N1CCN=C1SCc1cccc(F)c1 (stereo not shown) | -21.5%
44 | CCOC(=O)C1CCN(C(=O)Nc2cccc(OC)c2)CC1 | 9.66%

Row | SMILES | hERG current change (%, negative = inhibition) at 10uM
45 | COc1ccc(CNC(=O)CSc2nc3ccc(C)cc3[nH]2)cc1OC | 12%
46 | CCc1nn(CCCC(=O)NCc2ccccc2Br)c(=O)c2cc3occc3n12 | -30.5%
47 | COc1ccccc1C(CC(=O)O)NS(=O)(=O)c1ccc2c(c1)N(C(C)=O)CC(C)O2 (stereo not shown) | 25.8%
48 | CCCCN(C(=O)CSc1nnc(-c2ccc(OC)cc2)n1CC)c1c(N)n(Cc2ccccc2)c(=O)[nH]c1=O | 0.535%
49 | O=C(NCc1ccccc1)NCC12CC3CC(CC(C3)C1)C2 | 17.5%
50 | COc1ccc(C(=O)NC(=S)N2CCCCC2)cc1[N+](=O)[O-] | 7.57%
51 | Cc1csc(=O)n1CCC(=O)OCC(=O)Nc1cccc(C#N)c1 | -25.3%
52 | COc1ccccc1N1C(=NC(=O)CCC2CCCC2)SC2CS(=O)(=O)CC21 (stereo not shown) | 16.4%
53 | NC(=O)c1ccsc1NC(=O)COC(=O)/C=C/c1ccc([N+](=O)[O-])cc1 | -9.32%
54 | CNC(C(=O)c1ccccc1)C(OC(C)=O)c1cccc([N+](=O)[O-])c1.[O-][Cl+3]([O-])([O-])O (stereo not shown) | 13.3%
55 | COc1ccc(S(=O)(=O)Nc2cccnc2)c(C)c1C | -6%
56 | COc1ccc(C(=O)NN)cc1 | 0.991%
57 | CCC(C)Sc1ccc([C@H]2N[C@@](C)(C(=O)OC)[C@H]3C(=O)N(CC)C(=O)[C@@H]23)cc1.O=C(O)C(F)(F)F (stereo partly shown) | 7.25%
58 | CC(C)CCNC(=O)Cn1cc2c(n1)CCCCC2 | 4.9%
59 | Cc1cc(C)cc(C(=O)N[C@@H](C)C(=O)N2CCC3(CC2)NCCc2[nH]cnc23)c1 | 24.5%
60 | CN1CCN(C(=O)c2ccc3c(c2)N(Cc2cccc(Cl)c2)C(=O)c2ccccc2S3=O)CC1 (stereo not shown) | -19.5%
61 | O=C(OCC(=O)N1CCCC1=O)c1ccc(F)c(S(=O)(=O)N2CCOCC2)c1 | -2.99%
62 | O=C(NNS(=O)(=O)c1ccc(F)cc1)c1ccc2c(c1)OCO2 | 6.1%
63 | c1ccc2c(c1)c1ccccc1n2CN1CCOCC1 | -3.56%
64 | COc1cccc(/C=N/NC(=O)c2cccc3ccccc23)c1 | 5.29%
65 | Br.C=CCn1c(=N)n(CC(=O)OCC)c2ccccc21 | 5.36%
66 | COc1cc(OC)c(NC(=O)[C@@H]2CCC(=O)N2C2OC(=O)c3c2ccc(OC)c3OC)cc1Cl (stereo partly shown) | -25.7%

Row | SMILES | hERG current change (%, negative = inhibition) at 10uM
67 | COc1ccccc1N(C)S(=O)(=O)c1ccc(C(=O)Nc2ncc(C)s2)cc1 | 14.3%
68 | CC(C)Nc1nc(NC(C)C)nc(C(=O)OCCO)n1 | 19%
69 | CN(CCNC(=O)c1cc2c(-c3ccccc3F)nn(C)c2s1)C1CCCCC1 | -50.8%
70 | CCCc1c(C(=O)Nc2ccc(OC)cc2)cnn1-c1ccccc1 | 10.1%
71 | Cc1ccc(C(=O)N/N=C/c2c(O)ccc3ccccc23)cn1 | 12.6%
72 | COc1cc(OC)cc(C(=O)NC2=NCCS2)c1 | 1.69%
73 | C=CCn1c(O)c(N=NC(=S)Nc2ccccc2C)c2cc(S(=O)(=O)N3CCOCC3)ccc21 | 16.3%
74 | COc1ccc(CCCc2nnc(SCC(=O)N/N=C\c3ccc(O)c(OC)c3)o2)cc1C | 13.2%
75 | CCN1CCN(CC(O)COCCOc2ccc(Br)cc2)CC1.Cl (stereo not shown) | -12.3%
76 | Cc1ccc(C(=O)Oc2ccc(C(=S)N3CCOCC3)cc2)cc1 | -7.84%
77 | CCc1nnc(NC(=O)CSc2ccc(-c3nc4ccccc4[nH]3)cn2)s1 | 5.82%
78 | CCN(CC)c1nc(N)nc(NS(=O)(=O)c2ccc(Cl)cc2)n1 | -6.14%
79 | O=C(NCCCCNC(=O)c1ccc(Br)s1)c1ccc(Br)s1 | 0.848%
80 | CCOc1ccc(CCNC(=O)c2nnn(CC(=O)Nc3ccc(C)cc3)c2N)cc1OCC | -0.277%
81 | CCN1CCN(C(=S)NCC2CCCO2)CC1.O=C(O)C(=O)O (stereo not shown) | 13.2%
82 | O=C1CC(Nc2ccc(N3CCOCC3)cc2)C(=O)N1c1cccc(C(F)(F)F)c1 (stereo not shown) | -1.55%
83 | Cc1nc(N/N=C\c2ccc3c(c2)OCO3)sc1C | 20.4%
84 | O=C(Cc1ccccc1[N+](=O)[O-])NNC(=O)c1cccs1 | 13.6%
85 | Cc1ccc(/C=N/NC(=O)c2cccc(NC(=O)c3ccccc3C)c2)o1 | -16.8%
